Laboratory results as given in PMC8614738.
Results are given in words; binding and its absence hold for the method and conditions named. Some results given as binding are weak or reduced against the parent protein; the word gives no strength.

Key:
[1] = biological target: elongation factor thermo-unstable (EF-Tu), native monomeric (UniProt P0CE47); test: ITC; single injection of 140 μL Hsp33 (165 μM) into 1.4 mL EF-Tu (16.5 μM) at 35 °C; 50 mM Tris-HCl pH 7.4, 50 mM NaCl, 1 mM MgSO4, 50 μM ZnSO4, 1 mM DTT; both purified
[2] = biological target: elongation factor thermo-unstable (EF-Tu), native monomeric (UniProt P0CE47); test: SEC; analytical gel filtration of the triple mixture EF-Tu:EF-Ts:Hsp33, 0.1 mM each, pre-incubated at 35 °C for 30 min; same column and buffer; fractions on SDS-PAGE; both purified
[3] = biological target: elongation factor thermo-unstable (EF-Tu), native monomeric (UniProt P0CE47); test: SEC; analytical gel filtration of double mixtures, HiLoad 16/600 Superdex 200, 0.1 mM of each protein pre-incubated at 35 °C for 30 min; 50 mM Tris-HCl, 50 mM NaCl, 1 mM MgSO4, 2 mM DTT, pH 7.4, about 22 °C; fractions on SDS-PAGE; both purified
[4] = biological target: oligomeric EF-Tu (^OligoEF-Tu), unfolded (UniProt P0CE47); test: as above

binding [1]: binds
binding [2]: binds
binding [3]: binds
binding [4]: binds
B1: heat shock protein 33 (Hsp33), reduced zinc-bound (protein, UniProt P0A6Y5 1-292)
chain: MPQHDQLHRYLFENFAVRGELVTVSETLQQILENHDYPQPVKNVLAELLVATSLLTATLKFDGDITVQLQGDGPMNLAVINGNNNQQMRGVARVQGEIPENADLKTLVGNGYVVITITPSEGERYQGVVGLEGDTLAACLEDYFMRSEQLPTRLFIRTGDVDGKPAAGGMLLQVMPAQNAQQDDFDHLATLTETIKTEELLTLPANEVLWRLYHEEEVTVYDPQDVEFKCTCSRERCADALKTLPDEEVDSILAEDGEIDMHCDYCGNHYLFNAMDIAEIRNNASPADPQVH
